In the RNAGym collection of RNA variant scans (doi:10.1101/gad.245936.114) one finds nonsense suppression data, which are given here for 27 variants.

This sample is rich in variants without activity.

First the molecules themselves.
B1: tRNA (parent)
chain: CUCUCGGUAGCCAAGUUGGUUUAAGGCGCAAGACUUUAAUUUAUCACUACGAAAUCUUGAGAUCGGGCGUUCGACUCGCCCCCGGGAGAUUUUUUCCUCGAGCAA

In this data set the parent is B1. Put plainly: nonsense suppression (GFP-seq) (ratio to wild type); higher = more function; SUP4oc tRNA, yeast GFP reporter sort-seq. A digest of the protocol:
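Yeast carrying genome-integrated SUP4oc tRNA variants from a library with ~3% random mutations were grown in raffinose/galactose medium with 80 mg/L adenine. Each strain also carried a galactose-driven GFP ochre reporter and RFP. Cells were sorted into GFP/RFP bins, and each bin was Illumina-sequenced (phred ≥30). Nonsense suppression (GFPSEQ) is the bin median GFP/RFP, weighted by each variant's estimated cell share per bin, relative to wild-type SUP4oc; variants needed ≥100 reads and ≥30 cells.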
For the variant CUCUCGGUAGCCAAGUUGGUUUAAGGUGCAGGACUUUAAUUUAUCACUACGAAAUCUUGAGACCGGGCGUUCGACUCGCCCCCGGGAGAUUUUUUCCUCGAGCAA [C27U A31G U63C], the nonsense suppression is at most 0.026.
For CUCUCGUUAGCCAAGUUGGUUUAGGGCGCAAGUCUUUAAUUUAUCACUACGAAAUCUUGAAAUCGGGCGUUCGACUCGCCCCCGGGAGAUUUUUUCCUCGAGCAA [G7U A24G A33U G61A] the value was at most 0.026; for CUCUCGCUAGCCAAGUUCGUUUAAGGCGCAAGACUUUAAUUUAUCACUACGAAAUCUUGAGAUCAGGCGUUCGACUCGCCCCCGGGAGAUUUUUUCCUCGAGCAA [G7C G18C G65A], at most 0.026; for CUCUCGGUAGGCAAGUAGGUUUAAGGCGCAAGACUUUAAUUUAUCACUACGAAAUCUUGAGAUCGGGCGUUCGACUCGCCCCCGGGAGAUUUUUUCCUCGAGCAA [C11G U17A], at most 0.026.
With CUCUCGGUAGCCAAGUUGGUUUAAGGCGCGAGUCUUUAAUUUAUCACUACGAAAUAUCGAGAUCGGGCGUUCGGCUCGCCCCCGGGAGAUUUUUUCCUCGAGCAA [A30G A33U C56A U58C A74G], the nonsense suppression is at most 0.026.
For CUCUCGGUAGCCAAGUUGGUUUAAGGCGCAUGACUUUAAUUUAUCACUACGAAAUCUUGAGAUCGGGCGAACGACUCGCCCCCGGGAGAUUUUUUCCUCGAGCAA [A31U U70A U71A] the value was at most 0.026.
CUCUCGGUCGCCAAGUUGGUUUAAGGCGCAAGACUUUAAUUUAUCACUACGAAACCUUAAGAUCGGGCGUUCGACUCUCCCCCGGGAGAUUUUUUCCUCGAGCAA [A9C U55C G59A G78U]: the nonsense suppression is at most 0.026.
Turning to CUCUCGGUAGCCAAGUUGGUUUAAUGCGCAAGACUUUAAUUUAUCACUACGAAAUCUGGAGAUCGGGGGUUCGACUCGCCCCCGGGAGAUUUUUUCCUCGAGCAA [G25U U58G C68G], the nonsense suppression was at most 0.026.
For the variant UUUUCGGUAGCUAAGUUGGUUUAAGGCGCAAGACUUUAAUUUAUCACUACGAAAUCUUGAGAUCGGGCGUUCGACUCGCCCCCGGGAGAUUUUUUCCUCGAGCAA [C1U C3U C12U], the nonsense suppression was at most 0.026.
With CUCUCGGCAGCCAAGUUGGUUUAAGGCGCAAGACUUUAAUUUAUCACUACGAAAUCUUGAGAUCGGGCGUUCGACUCGCCCCGGGGAGAUUUUUUCCUCGAGCAA [U8C C83G], the nonsense suppression was at most 0.026.
As for UUCGCGGUAGCCAAGUUGCUUUAAGGCGCAAGACUUUAAUUUAUCACUACGAAAUCUUGAGAUCGGGCGUUCGACUCGCCCCCGGGAGAUUUUUUCCUCGAGCAA [C1U U4G G19C], the nonsense suppression was at most 0.026.
With CUCUGAGUAGCCAAGUUGGUUUAAGGCGCAAGACUUUAAUUUAUCACUACGAAAUCUUGAGAUCGGGCGUGCGACUCGCCCCCGGGAGAUUUUUUCCUCGAGCAA [C5G G6A U71G], the nonsense suppression is at most 0.026.
Turning to CUCUCGGUAGUCAAGUUGGUUUAAGGCGUAAGACUUUAAUUUAUCACUACGAAAUCUUGAGAUCGGGCGUUCGACUCACCCCCGGGAGAUUUUUUCCUCGAGCAA [C11U C29U G78A], the nonsense suppression was at most 0.026.
For CUCUCGGUAGCCAAGUUGGUUUAAGACUCAAGGCUUUAAUUUAUCACUACGAAAUCUUUAGAUCGGGCGUUCGACUCGCCCCCGGGAGAUUUUUUCCUCGAGCAA [G26A G28U A33G G59U] the value was at most 0.026.
CUCUCGGUAGCCAAGUUGGUUUAAGGCGCGAGACUUUAAUUUAUCACUACGAACUCUUGAGAUCGGGCGUACGACUCGCCCCCGGAAGAUUUUUUCCUCGAGCAA [A30G A54C U71A G86A]: the nonsense suppression was at most 0.026.
In the case of CUCUCGGUAGCUAAGUUUGUUUAAGGCGCAAGACUUUAAUUUAUCACUACGAAAUCUUGAGAUCGGGCGAUCGACUCGUCCCCGGGAGAUUUUUUCCUCGAGCAA [C12U G18U U70A C79U], the nonsense suppression is at most 0.026.
The same measure for CUCUCGGUAGCCAAGUUGGUUUAAGGCGCAAGACUUUAAUUUAUCACUACGAAUUCUUGAGAUCGGCCGUGCCACUCGCCCCCCGGAGAUUUUUUCCUCGAGCAA [A54U G67C U71G G73C G84C]: at most 0.026; for CUCUCGGUAGCCAAGCUGGUUUAAGGCGCAAGACUUUAAUUUAUCACUACGAAAUCUUGAGAUCGGGCGUUCGACUCGCCCCCGCGAGAUUUUUUCCUCGAGCAA [U16C G85C]: at most 0.026.
Regarding CACUCGGUAGCCAAGUUGGCUUAAGGCGCGAGACGUUAAUUUAUCACUACGAAAUCUUGAGAUCGGGCGUUCGACUCGCCCCCGGGAGAUUUUUUCCUCGAGCAA [U2A U20C A30G U35G], the nonsense suppression is at most 0.026.
As for CUCUCGGUAGCCAAGUUGGUUUAAGACGCAAGACUUUAAUUUAUCACUACGAAACCUUGAGAUCGCGCGUUCGACUCGCCCCCGGGAGAUUUUUUCCUCGAGCAA [G26A U55C G66C], the nonsense suppression was at most 0.026.
Turning to CUCUCGGUAGCCGAGUUGGUUUAAGGCGCAAGACUUUAAUUUAUCACUACGAAAUCGUGAGAUCGGGCGUUCGACUCGCCCCCGGGAGAUUUUUUCCUCGAGCAA [A13G U57G], the nonsense suppression is at most 0.026.
As to CUCUCGGUAGCCAAGUUGGUUUAAGGCGCAACACUUUAAUUUAUCACUACGAAAUCUUGAGAUCGGGCGUUCGACUCGCCCCCGGGAAAUUUUUUCCUCGAGCAA [G32C G88A], the nonsense suppression was at most 0.026.
Turning to CUCUCGGUAGUCAAGUUGGUUUAAGGCGCAAGAAUUUAAUUUAUCACUACGAAAUCUUGAGAUCGAGCGUUCGACUCGCCCCCGGGAGAUUUUUUCCUCGAGCAA [C11U C34A G66A], the nonsense suppression is at most 0.026.
The same measure for CUCUCGGUAACCAAGUAGGUUUAAGGCGCAAGACUUUAAUUUAUCACUACGAAAUGUUGAGAUCGGGCGUUCUACUCGCCACGGGGAGAUUUUUUCCUCGAGCAA [G10A U17A C56G G73U C81A C83G]: at most 0.026; for CUCUCGGUGGCCAAGUUGGUUAAAGGCGCAAGACUUUAAUUUAUCACUACGAAAUCUUGAGAUCGGGCGUUCGACUCGCCCCCGGGAGAUUUUUUCCUCGAGCAA [A9G U22A]: 0.212.
For the variant CUCUCAGUAGCCAAGUUGGUUUAAGGCGCAAGACUUUAAUUUAUCACUACGAAAUCUUGAGUGCGGGCGUUCGACUCGCCCCCGGGAGAUUUUUUCCUCGAGCAA [G6A A62U U63G], the nonsense suppression is at most 0.026.
As for CUCUCGGUAACCAAGUUGGUUUAAGGCGCAAGACUUUAAUUUAUCACUACGAAAUCUUGACAUCGGGCGUUCGACUCGCCCCCGGUAGAUUUUUUCCUCGAGCAA [G10A G61C G86U], the nonsense suppression is at most 0.026.
